In all, about 45,000 compounds went through this assay and about 65 (0.1%) were called active. Calls come from the whole dose curve; as a rule, active = well fitted activation curve with a large enough effect; inconclusive = small, poorly fitted or top-dose-only effect; inactive = no such curve, though single readings can be large or run the other way. Some of the results follow.

The experiment deals with Galactocerebrosidase (Homo sapiens) (UniProt P54803). Description: A Novel Cell-Based Assay to Identify Small Molecules for B -Galactocerebrosidase. Note: 0% is about no effect; nearly all actives have a fitted effect of over 65% in size. As to conditions: 145M-Twi-hGALC-G270D cells (Twitcher mouse brain line with human GALC G270D), HMU-beta-Gal fluorescence, 48 h; series mostly up to 57.5 µM; activation: at the top concentration. In short, it runs like this: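 Live 145M-Twi cells (Twitcher mouse brain-derived, GALC-null) stably expressing human GALC-G270D, with a wild-type GALC line, were compound-treated. Residual GALC activity was then read as fluorescence from 0.1 mM final HMU-β-gal at pH 5.2; higher signal means activation.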
Chain of UniProt P54803 (P54803 whole entry, looked up): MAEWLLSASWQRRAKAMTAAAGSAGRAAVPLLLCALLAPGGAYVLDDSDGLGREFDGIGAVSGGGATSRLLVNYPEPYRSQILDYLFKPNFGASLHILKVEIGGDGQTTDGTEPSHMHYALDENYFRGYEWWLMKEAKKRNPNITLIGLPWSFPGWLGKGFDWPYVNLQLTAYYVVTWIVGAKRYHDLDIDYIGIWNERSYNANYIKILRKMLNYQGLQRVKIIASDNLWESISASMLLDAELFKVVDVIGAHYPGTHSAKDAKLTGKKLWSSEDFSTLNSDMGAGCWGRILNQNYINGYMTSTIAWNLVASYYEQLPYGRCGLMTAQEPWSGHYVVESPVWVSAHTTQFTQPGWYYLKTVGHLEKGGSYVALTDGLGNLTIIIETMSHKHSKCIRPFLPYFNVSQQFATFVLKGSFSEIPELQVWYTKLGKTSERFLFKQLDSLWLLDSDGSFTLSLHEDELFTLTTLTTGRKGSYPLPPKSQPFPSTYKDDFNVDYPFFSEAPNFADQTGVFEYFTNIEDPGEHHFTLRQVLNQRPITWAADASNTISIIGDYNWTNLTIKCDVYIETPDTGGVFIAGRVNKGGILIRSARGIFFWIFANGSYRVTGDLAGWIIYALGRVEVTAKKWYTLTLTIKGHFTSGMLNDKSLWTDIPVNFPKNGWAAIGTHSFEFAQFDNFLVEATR
As for `CCOc1ccc(S(=O)(=O)N2CCN(c3cc(Cl)ccc3Cl)CC2)c2ccccc12`, the “activation” value was inactive: -20.5%. With `Cc1ccnc(NS(=O)(=O)c2ccc(NC(=O)C(C)(C)Oc3ccc(Cl)cc3)cc2)n1`, the “activation” value was inactive: -12.3%. Under `COc1ccc(OCc2nc3ccccc3n2C(C)c2ccccc2)cc1` (stereo unspecified) stands inactive: -11.9%.

For `CCOc1cccc2cc(-c3cn4c(n3)sc3cc(C)ccc34)c(=O)oc12`, the “activation” value was inactive: -5.87%. Then `CCOc1ccccc1NC(=O)CSc1nc2c(c(=O)[nH]1)CCC2`, with inactive: -19.9%; and `O=C(NCc1ccc(Cl)cc1)c1ccc(CSCc2cccc(Cl)c2)o1`, with inactive: -38%. On to `O=C(Cc1ccccc1)N(Cc1cccnc1)c1nc2c(F)cccc2s1`, for which the “activation” value is inactive: -5.79%.

For the compound `O=C(Nc1ccc(Cl)cc1F)c1oc(=O)c2ccccc2c1-c1ccccc1`, the “activation” value was inactive: -12.3%. Under `Cc1ccccc1OC(=O)c1snnc1C` stands inactive: -11.6%; under `Cc1cc(Br)ccc1NC(=O)C(Cc1ccccc1)NS(=O)(=O)c1ccc(Br)s1` (stereo unspecified), inactive: -15.9%; under `CCOc1cc(C2Nc3ccccc3-c3nnc(SCc4ccccc4)nc3O2)ccc1OC` (stereo unspecified), inactive: -2%. With `CCC(C(=O)Nc1ccc(C(=O)OC)cc1)n1nc(-c2ccc(C)cc2)c2c(c1=O)CCCC2` (stereo unspecified), the “activation” value is inactive: -17.7%. As for `Cc1cc(C)c2c(CC(=O)Nc3ccc(S(=O)(=O)N4CCCC(C)C4)cc3)coc2c1` (stereo unspecified), the “activation” value was inactive: -17.3%. Regarding `Nc1nc(Nc2cccc(C(F)(F)F)c2)sc1C(=O)c1ccccc1`, the “activation” value was inactive: -8.28%. Take `Cc1ccc(OCC(=O)Nc2cccc(OCc3cc(=O)n4ccccc4n3)c2)cc1C`: the “activation” value is inactive: -9.65%. Turning to `COc1cccc(CNC(=O)c2cc3cccc4c3n2CC(C)S4)c1OC` (stereo unspecified), the “activation” value was inactive: -26.9%. As to `C#CCn1c(COc2ccccc2C)nc2ccccc21`, the “activation” value is inactive: -11%. Under `COc1cc(OC)c(OC)cc1CNCCSc1nnnn1-c1ccccc1` stands inactive: -1.8%; under `Cn1c(CNC(=O)CSc2n[nH]c(-c3ccccc3Cl)n2)nc2ccccc21`, inactive: 3.74%; under `Cc1cccc(N(C)C(=O)CN2C(=O)COc3ccc(S(=O)(=O)N4CCCCCC4)cc32)c1`, inactive: -8.66%.

On to `CCN(Cc1ccccc1)C(=O)C1CCN(c2ncnc3c2nc2n3CCCCC2)CC1`, for which the “activation” value was inactive: 8.28%. Consider `COc1cc2c(=O)c(S(=O)(=O)c3ccc(F)cc3)cn(Cc3ccccc3C)c2cc1OC`, for which the “activation” value was inactive: -1.39%. On to `Cc1ccc(-n2cc(-c3ccccc3)c3c(NC4CCCC4)ncnc32)cc1`, for which the “activation” value was inactive: -9.51%. Regarding `Cc1ccc(-c2noc(-c3ccc(N4CCC(C)CC4)c([N+](=O)[O-])c3)n2)cc1`, the “activation” value was inactive: -11.7%. As for `Cc1c(C(=O)N2CCC(c3nc4ccccc4s3)CC2)oc2cc(Br)ccc12`, the “activation” value was inactive: -13.8%. As for `COc1cc(C2c3c(oc4cc(C)c(C)cc4c3=O)C(=O)N2CCCN2CCOCC2)ccc1O` (stereo unspecified), the “activation” value is inactive: -5.39%.

Regarding `CC(O)COc1ccccc1` (stereo unspecified), the “activation” value is inactive: -17.7%. As for `CCOC(=O)c1cc(S(=O)(=O)Nc2ccc(Br)c(C)c2)[nH]n1`, the “activation” value is inactive: -13.7%.

On to `Cc1ccc2c(c1)c1c(c(=O)n(-c3cccc(Cl)c3)c(=O)n1CC(=O)N1CCCC1)n2C`, for which the “activation” value was inactive: -6.79%. `CC(C)Cc1ccc(C(C)C(=O)OCc2ccccn2)cc1` (stereo unspecified): the “activation” value was inactive: -7.93%. As to `CCCNC(=O)c1cc2nc(-c3ccc(Br)cc3)cc(C(F)(F)F)n2n1`, the “activation” value is inactive: -7.28%.

Regarding `CCOc1cccc2cc(-c3nc4sc5c(c4c(=O)[nH]3)CCC(C(C)(C)C)C5)c(=O)oc12` (stereo unspecified), the “activation” value is inactive: -13.2%. As to `CCOc1ccc(-n2c(SCc3nc(-c4ccc(OC)cc4)no3)nnc2-c2ccncc2)cc1`, the “activation” value is inactive: -10.2%.

Turning to `COc1ccc(Br)cc1CNC(=O)c1cc(=O)[nH]c2ccc(S(=O)(=O)N3CCCC3)cc12`, the “activation” value was inactive: -15.1%. Then `Cc1nc2ccccc2n1CCc1nc2c3ccccc3nc(SCc3cccc(F)c3)n2n1`, with inactive: -9.17%; and `CC1=C(C(=O)Nc2ccccc2)C(c2ccccc2C)n2ncc(C(=O)Nc3ccccc3)c2N1` (stereo unspecified), with inactive: 3.59%; and `Cc1cc(C)cc(OCCn2c(C3CC(=O)N(c4ccccc4Cl)C3)nc3ccccc32)c1` (stereo unspecified), with inactive: -44.4%. On to `CCOc1ccccc1NC(=O)Cn1c(=O)n(CCC(C)C)c(=O)c2cccnc21`, for which the “activation” value was inactive: -8.44%.

Turning to `O=C(COC(=O)c1cc(-c2cccs2)nc2ccccc12)c1ccc(Br)cc1`, the “activation” value was inactive: -21.7%. As to `Cn1c(=O)c2sccc2n2c(CCC(=O)NCc3ccc(F)cc3)nnc12`, the “activation” value is inactive: -14.2%. Turning to `COc1ccc(CCNC(=O)CCn2c(=O)c3ccccc3n(CC(=O)Nc3ccccc3F)c2=O)cc1OC`, the “activation” value is inactive: 2.68%. For the compound `Cc1ccc2c(=O)c(C(=O)c3ccccc3)cn(CC(=O)Nc3ccc4c(c3)OCCO4)c2n1`, the “activation” value was inactive: -14.5%.

As for `Cn1c(=O)oc2cc(S(=O)(=O)N3CCC(C(=O)NCc4ccccc4Cl)CC3)ccc21`, the “activation” value is inactive: -0.24%. For the compound `Cc1ccc(NC(=O)Cn2nc(C)c3nn(-c4ccc(Cl)cc4)c(C)c3c2=O)cc1C`, the “activation” value is inactive: -7.05%.

As to `O=C1CN(C(=O)Cc2ccc(F)cc2)C(c2ccccc2)c2cc(Br)ccc2N1` (stereo unspecified), the “activation” value is inactive: -16.7%.

For the compound `CCCCN(CC)CCNC(=O)Cn1cnc2sc(C)c(S(=O)(=O)N3CCC(C)CC3)c2c1=O`, the “activation” value was inactive: -26.2%. In the case of `COc1ccc(Cn2c(C(=O)O)c(CNCc3cccc(OC)c3)c3ccc(C)cc32)cc1`, the “activation” value is inactive: -21%. Regarding `O=C1c2oc3ccccc3c(=O)c2C(c2ccc(Br)cc2)N1c1ccccn1` (stereo unspecified), the “activation” value was inactive: -6.4%. Consider `CCOc1ccc(NC(=O)CC2C(=O)N(c3ccccc3)C(=O)N2CCc2ccc(OC)cc2)cc1` (stereo unspecified), for which the “activation” value was inactive: -13.7%.

As to `COC(=O)c1cnn(-c2ccc(C(=O)Nc3cccc(C(C)=O)c3)cc2)c1N`, the “activation” value was inactive: -10.5%. As to `CCOC(=O)c1[nH]c(C)c(CCC(=O)Nc2c(C)cc(C)cc2C)c1C`, the “activation” value is inactive: -5.42%. `CCCn1c(SCc2nc(-c3ccccc3C)no2)nnc1-c1ccc(Cl)cc1`: the “activation” value is inactive: -19.4%. In the case of `Cc1cccc(OCc2cc(=O)n3c(-c4ccccc4)csc3n2)c1C`, the “activation” value was inactive: -3.7%. Turning to `COc1ccc(N2C(=O)CSC23C(=O)N(CC(=O)NC2CCCCC2)c2ccccc23)cc1` (stereo unspecified), the “activation” value was inactive: -26.6%. `Cc1cccc(N2CCN(C(=O)C3CCC(CNS(=O)(=O)c4ccc(Br)s4)CC3)CC2)c1C` (stereo unspecified): the “activation” value was inactive: -12.5%. Then `CCc1nn(CC(=O)N2CCN(c3cccc(C)c3C)CC2)c(=O)c2cc3occc3n12`, with inactive: 7.26%. Turning to `CC(=O)c1ccc(N2CCN(S(=O)(=O)c3c(C)nc4sc(C)cn4c3=O)CC2)cc1`, the “activation” value is inactive: -0.349%. Consider `CCn1cc(C(=O)NCCCOC(C)C)c(=O)c2cc(S(=O)(=O)N3CCc4ccccc4C3)ccc21`, for which the “activation” value was inactive: -22%. Under `O=C(CN1C(=O)CCSc2ccc(S(=O)(=O)N3CCCC3)cc21)Nc1ccccc1` stands inactive: -14.7%; under `CCC(Oc1ccccc1)C(=O)Nc1ccc(O)c(-c2nc3cc(C)ccc3o2)c1` (stereo unspecified), inactive: -14.9%. In the case of `CCC(C(=O)Nc1ccccc1C(=O)OC)n1c(C)c2cnn(-c3ccccc3)c(=O)c2c1C` (stereo unspecified), the “activation” value was inactive: 4.18%.

For `CCc1nnc(NC(=O)c2nc(S(=O)(=O)Cc3cccc(C)c3)ncc2Cl)s1`, the “activation” value was inactive: -17%. Turning to `NC(=O)CSc1oc(-c2ccco2)nc1S(=O)(=O)c1ccc(Br)cc1`, the “activation” value was inactive: -24%.

Take `CCCCn1cc(S(=O)(=O)c2ccc(C)c(C)c2)c(=O)c2cc(F)c(N3CCN(C)CC3)cc21`: the “activation” value is inactive: -9.39%.

For `Cn1c(CN2CCCCC2)nc2cc(NC(=O)c3cccc(Br)c3)ccc21`, the “activation” value is inactive: -4.75%. Take `Cn1c(NCCCCO)nc2c1c(=O)n(Cc1ccc(Cl)cc1)c(=O)n2C`: the “activation” value was inactive: -4.73%. Under `COc1ccc(NC(=O)Cn2c(=O)n(CCCC(=O)NCc3ccccc3OC)c(=O)c3ccccc32)cc1Cl` stands inactive: -0.602%. As to `COc1cccc(NC(=O)CCS(=O)(=O)c2ccc3c(c2)oc(=O)n3C)c1`, the “activation” value is inactive: -4.71%.

Regarding `O=C(Cn1cc(S(=O)(=O)Cc2ccccc2Cl)c2ccccc21)NCc1ccccc1Cl`, the “activation” value is inactive: -26.5%. Then `O=C(Nc1cccc(C(F)(F)F)c1)c1cc(-c2ccc3c(c2)OCCO3)on1`, with inactive: -10.7%.

On to `CCSc1nnc(NC(=O)c2cc(=O)c3cc(C)c(C)cc3o2)s1`, for which the “activation” value is inactive: -15.6%.

On to `CCOC(=O)c1c(-c2ccc(OC)cc2)oc2ccc(OCc3ccc(Br)cc3)cc12`, for which the “activation” value was inactive: -15.2%.

Regarding `COc1ccc(Cn2c(=O)c3cccnc3n(CC(=O)Nc3c(C)cc(C)cc3C)c2=O)cc1`, the “activation” value is inactive: -13.7%. On to `CCc1cnc2c(c1SCC(=O)c1ccc(Cl)cc1)c(=O)n(C)c(=O)n2C`, for which the “activation” value is inactive: -8.25%.

`CC(=O)c1ccc(N2CCN(C(=O)CCCCn3c(=O)[nH]c4ccsc4c3=O)CC2)cc1`: the “activation” value was inactive: -12.9%. As for `CCOc1ccc(CNS(=O)(=O)c2cc3c(cc2C)NC(=O)CO3)cc1`, the “activation” value is inactive: -6.59%. Consider `Cc1cccc(NC(=O)CSc2nc3ccccc3nc2N2CCOCC2)c1C`, for which the “activation” value was inactive: -11.5%.

With `O=C(Nc1nnc2n1CCS2)c1ccccc1C(F)(F)F`, the “activation” value was inactive: -19.3%.

With `COc1cc(OC)cc(C(=O)N2CC(=O)Nc3ccc(Cl)cc3C2c2ccccc2)c1` (stereo unspecified), the “activation” value is inactive: -6.55%. Take `CC(C)CCNC(=O)CCC(=O)NNc1nc2ccccc2c2nc(-c3ccccc3)nn12`: the “activation” value was inactive: -7.08%. Consider `O=C(NCCc1ccc(F)cc1)C(=O)NCC(c1ccco1)S(=O)(=O)c1cccs1` (stereo unspecified), for which the “activation” value was inactive: -12.9%. For `COc1ccc(S(=O)(=O)n2nc(C)c(S(=O)(=O)N3CCC(C)CC3)c2C)cc1OC`, the “activation” value was inactive: 1.74%. As for `Cc1ccc(N(CC(=O)Nc2ccc(Br)cc2)S(=O)(=O)c2cccs2)cc1`, the “activation” value is inactive: -10.6%. As to `CCc1ccccc1NC(=O)c1ccc2nc(C(C)C)oc2c1`, the “activation” value was inactive: -14.6%.

On to `CCOc1ccc(NC(=O)C(=O)NCc2ccco2)cc1`, for which the “activation” value was inactive: -10.1%.

Consider `COc1cccc(C(=O)NCC(c2ccc3c(c2)OCO3)N2CCOCC2)c1` (stereo unspecified), for which the “activation” value is inactive: 1.46%. Then `COc1ccc(C2=C(C)C(N3CCC(C(=O)Nc4ccc(F)cc4C)CC3)=NS2(=O)=O)cc1`, with inactive: -12.1%; and `O=C(Nc1ccc(Cl)c(C(F)(F)F)c1)C(Cc1ccccc1)NS(=O)(=O)c1ccc(Br)s1` (stereo unspecified), with inactive: -11.9%. On to `CC1(C)CC(=O)c2cc(C(=O)Nc3ccccc3Cl)c(=O)n(-c3ccc(Cl)cc3)c2C1`, for which the “activation” value was inactive: -8.09%. As to `COc1ccc2cc3cc(C(=O)NCc4ccccc4OC)oc3nc2c1`, the “activation” value is inactive: -26.9%. Under `O=C(NCc1ccccc1)C(=O)NCC(c1cccs1)S(=O)(=O)c1ccccc1` (stereo unspecified) stands inactive: -14.7%; under `CCOC(=O)c1ccc(NC(=O)c2cc3sccc3n2Cc2ccc(Cl)cc2)cc1`, inactive: -13.4%; under `Cc1cccc(N2CCN(S(=O)(=O)c3csc(C(N)=O)c3)CC2)c1C`, inactive: -0.762%. Consider `Cc1cccc(NC(=O)CSc2nc(-c3ccco3)cc(C(F)(F)F)n2)c1C`, for which the “activation” value was inactive: -2.99%.

Turning to `Cc1ccc(N(Cc2cccs2)C(=O)c2ccccc2Cl)cc1`, the “activation” value was inactive: -6.61%. For the compound `COc1ccc(NC(=O)C(C)N(c2ccccc2)S(C)(=O)=O)cc1` (stereo unspecified), the “activation” value is inactive: -17.1%.

The values above are taken from PubChem BioAssay AID1159614 (National Center for Advancing Translational Sciences (NCATS), 2016).
